Measurements published in patent US20240262848A1, “HETEROCYCLIC COMPOUNDS, COMPOSITIONS THEREOF, AND METHODS OF TREATMENT THEREWITH” (BeiGene, Ltd., priority 2022, published 2024).

Each compound was assayed against GST-tagged GDP-loaded WT KRAS (amino acids 1-169) (Homo sapiens, UniProt P01116) (assay: KRAS WT probe displacement assay (run with the KRAS G12V assay, TR-FRET)). Details: Table 4; WT KRAS 3 nM, biotinylated probe 1 60 nM.
Format: binding
In the case of `CN1c2nc(OC[C@@]34CCCN3C[C@H](F)C4)nc3c(F)c(-c4cc(N)cc(Cl)c4C(F)(F)F)nc(c23)OC[C@H]2CCC[C@H]21` [Example 52, 3-chloro-5-((8aS,11aR)-4-fluoro-2-(((2R,7aS)-2-fluorotetrahydro-1H-pyrrolizin-7a(5H)-yl)methoxy)-12-methyl-8a, 9,10,11,11a, 12-hexahydro-8H-7-oxa-1,3,6,12-tetraazacyclopenta[5,6]cycloocta[1,2,3-de]naphthalen-5-yl)-4-(trifluoromethyl)aniline], the IC50 is reported as 8.1 nM. For `CN1c2nc(OC[C@@]34CCCN3C[C@H](F)C4)nc3c(F)c(-c4cc(N)cc(Cl)c4C(F)(F)F)nc(c23)O[C@H]2CCCC[C@@H]21` [Example 46, 3-chloro-5-((7aS,11aS)-4-fluoro-2-(((2R,7aS)-2-fluorotetrahydro-1H-pyrrolizin-7a(5H)-yl)methoxy)-12-methyl-7a, 8,10,11,11a, 12-hexahydro-9H-7-oxa-1,3,6,12-tetraazapleiaden-5-yl)-4-(trifluoromethyl)aniline], the IC50 was 0.58 nM. `CC1CCN(C)c2nc(OC[C@@]34CCCN3C[C@H](F)C4)nc3c(F)c(-c4cc(N)cc(Cl)c4C(F)(F)F)nc(c23)O1` (stereo partly drawn) [Example 14, 3-chloro-5-(4-fluoro-2-(((2R,7aS)-2-fluorotetrahydro-1H-pyrrolizin-7a(5H)-yl)methoxy)-8,11-dimethyl-8,9,10,11-tetrahydro-7-oxa-1,3,6,11-tetraazacycloocta[de]naphthalen-5-yl)-4-(trifluoromethyl)aniline] was tested, and the IC50 was 30 nM. `Nc1cc(Cl)c(C(F)(F)F)c(-c2nc3c4c(nc(OC[C@@]56CCCN5C[C@H](F)C6)nc4c2F)N(C2CC2)CCCO3)c1` [Example 4, 3-chloro-5-(11-cyclopropyl-4-fluoro-2-(((2R,7aS)-2-fluorotetrahydro-1H-pyrrolizin-7a(5H)-yl)methoxy)-8,9,10,11-tetrahydro-7-oxa-1,3,6,11-tetraazacycloocta[de]naphthalen-5-yl)-4-(trifluoromethyl)aniline] showed an IC50 of 7.3 nM. `Cc1cc(N)cc(-c2nc3c4c(nc(OC[C@@]56CCCN5C[C@H](F)C6)nc4c2F)N(C)CCO3)c1C(F)(F)F` [Example 3, 3-(4-fluoro-2-(((2R,7aS)-2-fluorotetrahydro-1H-pyrrolizin-7a(5H)-yl)methoxy)-10-methyl-9,10-dihydro-8H-7-oxa-1,3,6,10-tetraazacyclohepta[de]naphthalen-5-yl)-5-methyl-4-(trifluoromethyl)aniline] gave an IC50 of 29 nM. With `CC1COc2nc(-c3cc(N)cc(Cl)c3C(F)(F)F)c(F)c3nc(OC[C@@]45CCCN4C[C@H](F)C5)nc(c23)N(C)C1` (stereo partly drawn) [Example 15, 3-chloro-5-(4-fluoro-2-(((2R,7aS)-2-fluorotetrahydro-1H-pyrrolizin-7a(5H)-yl)methoxy)-9,11-dimethyl-8,9,10,11-tetrahydro-7-oxa-1,3,6,11 tetraazacycloocta[de]naphthalen-5-yl)-4-(trifluoromethyl)aniline] the IC50 was 13 nM. Work on `CN1c2nc(OC[C@@]34CCCN3C[C@H](F)C4)nc3c(F)c(-c4ccc(F)c5sc(N)c(C#N)c45)c(Cl)c(c23)OCCC12COC2` [Example 28, 2-amino-4-(9′-chloro-11′-fluoro-2′-(((2R,7aS)-2-fluorotetrahydro-1H-pyrrolizin-7a(5H)-yl)methoxy)-4′-methyl-6′,7′-dihydro-4′H-spiro[oxetane-3,5′-[1,5]oxazocino[4,3,2-de]quinazolin]-10′-yl)-7-fluorobenzo[b]thiophene-3-carbonitrile] yielded an IC50 of 3.2 nM. Work on `CCN1c2nc(OC[C@@]34CCCN3C[C@H](F)C4)nc3c(F)c(-c4cc(N)cc(C)c4C(F)(F)F)nc(c23)OCCC12COC2` [Example 56, 3-(11-ethyl-4-fluoro-2-(((2R,7aS)-2-fluorotetrahydro-1H-pyrrolizin-7a(5H)-yl)methoxy)-8,9-dihydro-11H-7-oxa-1,3,6,11-tetraazaspiro[cycloocta[de]naphthalene-10,3′-oxetan]-1(11a), 2,3a, 3a^1(6a),5-pentaen-5-yl)-5-methyl-4-(trifluoromethyl)aniline] yielded an IC50 of 2 nM. `CN1c2nc(OC[C@@]34CCCN3C[C@H](F)C4)nc3c(F)c(-c4cc(N)cc(Cl)c4C(F)(F)F)nc(c23)OCCC12CCC2` [Example 32, 3-chloro-5-(4′-fluoro-2′-(((2R,7aS)-2-fluorotetrahydro-1H-pyrrolizin-7a(5H)-yl)methoxy)-11′-methyl-8′,9′-dihydro-11′H-7′-oxa-1′,3′,6′,11′-tetraazaspiro[cyclobutane-1,10′-cycloocta[de]naphthalen]-1′(11a′), 2′,3a′, 3 al′(6a′), 5′-pentaen-5′-yl)-4-(trifluoromethyl)aniline] was tested, and the IC50 was 11 nM. In the case of `CCN1c2nc(OC[C@@]34CCCN3C[C@H](F)C4)nc3c(F)c(-c4cc(N)cc(C)c4C(F)(F)F)nc(c23)OCCC12CC2` [Example 54, 3-(11-ethyl-4-fluoro-2-(((2R,7aS)-2-fluorotetrahydro-1H-pyrrolizin-7a(5H)-yl)methoxy)-8,9-dihydro-11H-7-oxa-1,3,6,11-tetraazaspiro[cycloocta[de]naphthalene-10,1′-cyclopropan]-1(11a), 2,3a, 3a^1(6a), 5-pentaen-5-yl)-5-methyl-4-(trifluoromethyl)aniline], the IC50 is reported as 3.4 nM. `C[C@@H]1CCOc2c(Cl)c(-c3ccc(F)c4sc(N)c(C#N)c34)c(F)c3nc(OC[C@@]45CCCN4C[C@H](F)C5)nc(c23)N1C` [Example 19, 2-amino-4-((R)-9-chloro-11-fluoro-2-(((2R,7aS)-2-fluorotetrahydro-1H-pyrrolizin-7a(5H)-yl)methoxy)-4,5-dimethyl-4,5,6,7-tetrahydro-[1,5]oxazocino[4,3,2-de]quinazolin-10-yl)-7-fluorobenzo[b]thiophene-3-carbonitrile] showed an IC50 of 0.66 nM. Work on `C#Cc1c(F)ccc2cc(O)cc(-c3nc4c5c(nc(OC[C@@]67CCCN6C[C@H](F)C7)nc5c3F)N(C3CCC3)CCCO4)c12` [Example 13, 4-(11-cyclobutyl-4-fluoro-2-(((2R,7aS)-2-fluorotetrahydro-1H-pyrrolizin-7a(5H)-yl)methoxy)-8,9,10,11-tetrahydro-7-oxa-1,3,6,11-tetraazacycloocta[de]naphthalen-5-yl)-5-ethynyl-6-fluoronaphthalen-2-ol] yielded an IC50 of 1.5 nM. With `CC1CC(C)N(C)c2nc(OC[C@@]34CCCN3C[C@H](F)C4)nc3c(F)c(-c4cc(N)cc(Cl)c4C(F)(F)F)nc(c23)O1` (stereo partly drawn) [Example 21, 3-chloro-5-(4-fluoro-2-(((2R,7aS)-2-fluorotetrahydro-1H-pyrrolizin-7a(5H)-yl)methoxy)-8,10,11-trimethyl-8,9,10,11-tetrahydro-7-oxa-1,3,6,11-tetraazacycloocta[de]naphthalen-5-yl)-4-(trifluoromethyl)aniline] the IC50 was 3.4 nM. Compound `CCN1c2nc(OC[C@@]34CCCN3C[C@H](F)C4)nc3c(F)c(-c4cc(N)cc(C)c4C(F)(F)F)nc(c23)O[C@H]2COCC[C@@H]21` [Example 57, 3-((7aR,11aS)-12-ethyl-4-fluoro-2-(((2R,7aS)-2-fluorotetrahydro-1H-pyrrolizin-7a(5H)-yl)methoxy)-7a, 8,10,11,11a, 12-hexahydro-7,9-dioxa-1,3,6,12-tetraazapleiaden-5-yl)-5-methyl-4-(trifluoromethyl)aniline] has an IC50 of 2.4 nM. `CN1CCCOc2nc(-c3cc(N)cc(Cl)c3C(F)(F)F)c(F)c3nc(OC[C@@]45CCCN4C[C@H](F)C5)nc1c23` [Example 9, 3-chloro-5-(4-fluoro-2-(((2R,7aS)-2-fluorotetrahydro-1H-pyrrolizin-7a(5H)-yl)methoxy)-11-methyl-8,9,10,11-tetrahydro-7-oxa-1,3,6,11-tetraazacycloocta[de]naphthalen-5-yl)-4-(trifluoromethyl)aniline] was tested, and the IC50 was 10 nM. `CN1c2nc(OC[C@@]34CCCN3C[C@H](F)C4)nc3c(F)c(-c4cc(N)cc(Cl)c4C(F)(F)F)nc(c23)O[C@@H]2CCC[C@H](O)[C@H]21` (relative stereo) [Example 47, (7aR*,11S*,11aR*)-5-(5-amino-3-chloro-2-(trifluoromethyl)phenyl)-4-fluoro-2-(((2R,7aS)-2-fluorotetrahydro-1H-pyrrolizin-7a(5H)-yl)methoxy)-12-methyl-7a, 8,10,11,11a, 12-hexahydro-9H-7-oxa-1,3,6,12-tetraazapleiaden-11-ol] was tested, and the IC50 was 0.84 nM. `Nc1cc(Cl)c(C(F)(F)F)c(-c2nc3c4c(nc(OC[C@@]56CCCN5C[C@H](F)C6)nc4c2F)N(CCO)CCO3)c1` [Example 7, 2-(5-(5-amino-3-chloro-2-(trifluoromethyl)phenyl)-4-fluoro-2-(((2R,7aS)-2-fluorotetrahydro-1H-pyrrolizin-7a(5H)-yl)methoxy)-8,9-dihydro-10H-7-oxa-1,3,6,10-tetraazacyclohepta[de]naphthalen-10-yl)ethan-1-ol] showed an IC50 of 5.1 nM. For `CCc1c(F)ccc2cc(O)cc(-c3nc4c5c(nc(OC[C@@]67CCCN6C[C@H](F)C7)nc5c3F)N(C)C(C)CCO4)c12` (stereo partly drawn) [Example 16, 5-ethyl-6-fluoro-4-(4-fluoro-2-(((2R,7aS)-2-fluorotetrahydro-1H-pyrrolizin-7a(5H)-yl)methoxy)-10,11-dimethyl-8,9,10,11-tetrahydro-7-oxa-1,3,6,11-tetraazacycloocta[de]naphthalen-5-yl)naphthalen-2-ol], the IC50 was 2.6 nM. `C#Cc1c(F)ccc2cc(O)cc(-c3cc4c5c(nc(OC[C@@]67CCCN6C[C@H](F)C7)nc5c3F)N(C)CCCO4)c12` [Example 1, 5-ethynyl-6-fluoro-4-(11-fluoro-2-(((2R,7aS)-2-fluorotetrahydro-1H-pyrrolizin-7a(5H)-yl)methoxy)-4-methyl-4,5,6,7-tetrahydro-[1,5]oxazocino[4,3,2-de]quinazolin-10-yl)naphthalen-2-ol] gave an IC50 of 11 nM. `CCN1c2nc(OCC34CCCN3CC(F)C4)nc3c(F)c(-c4cc(N)cc(Cl)c4C(F)(F)F)nc(c23)OCCC12CC2` [Example 55, 3-chloro-5-(11-ethyl-4-fluoro-2-(((2R,7aS)-2-fluorotetrahydro-1H-pyrrolizin-7a(5H)-yl)methoxy)-8,9-dihydro-11H-7-oxa-1,3,6,11-tetraazaspiro[cycloocta[de]naphthalene-10,1′-cyclopropan]-1(11a), 2,3a, 3 al(6a), 5-pentaen-5-yl)-4-(trifluoromethyl)aniline] gave an IC50 of 0.87 nM.
